# Whole data set: some 4,500 sequences, median “median log2 fold change of GCK-ALFA target abundance (FLAG IP / Myc IP barcode read proportion)” near 0.078, cut for the lowest 2% near -0.6. The list shows a part of the results.
# B1: GBRAP_160_4828 (protein)
# chain: SEALERLKKLIDEEAKRAIELIKGQTAEERAAIVAVEFGRVILELSEEPEVSDELEDKVAELADAAVATIRANPDLTYEEITALINDTAEKIKELIEKEL
# B2: GBRAP_184_5360 (protein)
# chain: DVEVVSIDAKTKEEAERKLKEARERIKKSGKPTTLYLFLENADLETFETAAKLLNEMKEEGLIERAIIDVLDERSEEEVDKMVKIADKYGVQLVVALKEE
# B3: GBRAP_166_4905 (protein)
# chain: SREEEIKRLIEEIEELIERYKEADEEEQLELLIEIGEKLRELKKLGMPLEEILELVRRALEAAKEAGRSVRVAAGIIAEVADFDEEEIEKIDEIAREVEA
# B4: GBRAP_57_6446 (protein)
# chain: SARLEAIREAAARLIALLEAGAPEEEIREAARELMDLLSEDTVLLVAAILDPEAAEGLDLEELRELVVERLIELRRTEGPAAAIRVVEAALAQEELDAEE
# B5: GBRAP_160_4510 (protein)
# chain: SEKLEKIKKDIEEARKEIIEEIDEGTVEEAQVVAAVELGEVIMDLIEDESFSDEAVDEAAKIRDELIEELKKNKNASKEELKKIVEEKTEELIKKLEKLS
# B6: GBRAP_137_3617 (protein)
# chain: KTIHITFSEEDGTAIATIEASPEVDHEKLLELVEEVAKETGTQVVEAYDEDSPVRIIDLVGTREQIIAATKLLIKRLKEELGAEVVLSSDGAEDLVEAVR
# B7: GBRAP_160_4050 (protein)
# chain: EEEKEELLEMVDEAEAEILEVLAEEGAAAALTMFAGRFGEIIMEAAEDEEASDELVDELAEIEDAGLAALRANADASPEELAAIIRDAAARIKEAIKKHL
# B8: GBRAP_128_3569 (protein)
# chain: SAEEKLKKAKELLEKIVESDVEEARVLARELVRLMAEADPETREKITELALEYLPKLTAEKLDVLADVLREERPKADPDTANLLAEIEVEALNEREEKEE
# B9: GBRAP_14_3875 (protein)
# chain: MEEIKKIIDDMVAEIVAFVKEVSPEIAPEVEKRLNEIREKTLARIEETGDPLAAFDAMEEEMIAAMEEITADLPEEDRTAILAELRVRLAEARYRIDEVL
# B10: GBRAP_26_5455 (protein)
# chain: IEAAVDAAEERLLATFDEVLDPETAAAMKTVVLTEAEEIEEVVEAHPNDAAAIKAAVDAAVADIREEMDLLEVPADARAKITAALDAEAARIKAAIEAAA
# B11: GBRAP_43_5778 (protein)
# chain: SKELVDGAYEAALLAAEEPEIDDDTKVKMINLAFELAADEGYIDEEKLEKIIEAAGKSLSAEALKKIRDRLLKIAKEHPELKEEFEKAAEKVEKYIKAKE
# B12: GBRAP_95_7061 (protein)
# chain: EEDKEAALDDVLAYAARVELGDESAVPRLAAALVEALKLGVLEEAAKELSDEVLLRALREAADRADPETVLALIEAALKATGNEELAAAARAYLEARLAA
# B13: GBRAP_80_6834 (protein)
# chain: MEEELEAVVKELEKVDKEIAKLVREVIEIAKELGVPLETLLRLAKAILELAKVDKEKARKLVKELLEKMKEAKKAGDKEAALAYLVDAESDALLEVEEAE
# B14: GBRAP_52_6018 (protein)
# chain: MRARLRAFVEEVLALVRAGKLEEAKALIEELVASLNEEEIEVLIDVVAERAAAAAPEDHDAVWRMAEMIAEAMEKAGKDEVLADLLEARVAAALYAAEQR
# B15: GBRAP_117_2577 (protein)
# chain: AEEKEAVKERLRATVRAAGKALAASKTLSPEERAKVRAAVAAEIDAAVREALKVLSKEEVLDIVEEELLDFDAETYFEIMSFVEDAIQKIEDEEEAKRLA
# B16: GBRAP_52_6333 (protein)
# chain: SEEEIEKLAEELVKAIKAGDLEKAKKLAEEAVEKLSSEEILKLAKIVAEKVAKEDDEVHVRFTEIADYLAELVREKKGDEETAAEILGIVATTLYAAELA
# B17: GBRAP_160_4713 (protein)
# chain: SETAEERKKYVDEEFERAKKLIEGETIEQRAIIVEGTVGEIIMEFVEDEKATDELIDEVIEIGDELVKTILENPNLTLEEIKELIDEAREKMKEAIDKHL
# B18: GBRAP_52_6309 (protein)
# chain: MEEEARRLAEEIVALVLAGDREGARALIREIARTKSEEEILLIARELARLAETADAETLDAIAEAMLMMEDVLEEEGVDPEVIAEALGIVTTALYKRELA
# B19: GBRAP_160_4475 (protein)
# chain: SEKVKEAVEEMEEDVEETLEENEDLPPKDLLLAVEVTLGSNLMEWVEKGLLSDEQEDIVIEAMDELRRLREESENMSVEEVKERAREIVREMKARILAAA
# B20: GBRAP_160_4266 (protein)
# chain: SPEREKLIEEIKEDKEEILELIDEITPEEARTLAVVELGSHLMEAIELGLVTDEEEDELMEVIDELEEELEKNKDAPPEVHKEIIEKHYEKAIEILKKAK
# B21: GBRAP_52_6278 (protein)
# chain: SEEEVKKVAEEIVELIKEGKLEEALKLAREAAKKFSLEEVLRLGELLIEQIKELSPEQLELALEVMEELAREIEERFGEEEEASILEARAAAAAYENLQR
# B22: GBRAP_160_4860 (protein)
# chain: SEKLKRALEIIEKAREEALALIDESPVSQHAAFARAVAGDALLELIEEGLINEELEEELDKIIDKLEAELKAGADASTEEHKALVEKAFEEMKKAIKELS
# B23: GBRAP_139_3744 (protein)
# chain: AAAEAVAARARALVAALEEDREAALRALAELLASLDEELREVAARAIAEALLEKDYETAERILDELARLLREEHGDEDGAEIVEAEKNRTLALIAVREEE
# B24: GBRAP_160_4862 (protein)
# chain: SEKLEKALKILEEARDRALAAIDEAPASQRAAIADAEMGEAIMELIEEGLLNDELEEKLNEIRDELRAELKANADASVEEHKAMVEKAFKKMEEVIKELM
# B25: GBRAP_166_4878 (protein)
# chain: MKEEIKKEVEEAVKKFEEEIKKANKEEQFELLIELAEKLAEAKKKGLDDEDLLEAVRRVLKAVKEVGGSPRVAAGIIENEVEFDEELREKLRKIVEEVEK
# B26: GBRAP_128_3604 (protein)
# chain: SVEEAKERAKEALEKIKNSNLEEAKKIAKELAEWLLTLSLEEVKAAVETIKELAPELSEDKLLILQDALHEAAKKATPEKQEVLLDALGVLGEEAYEKTE
# B27: GBRAP_83_6953 (protein)
# chain: KEKLVVAANDDNVEEAVKIAADLEKTGKYEVTLEFIGTVEAAEKLIEEMKKAWEEGVKIDVDILLEGATEEEVEEVKKKMEKAAKEAGADIKVNVYALPK
# B28: GBRAP_128_3462 (protein)
# chain: SVEEAVAWAEKTLKEIEKADLEEARKLFEELAERLATLSLEEVEAVVEVIEKHLPKLTAEKLEILAEVLAEARPRFDPEKRALVADVESDALLLAEELEE
# B29: GBRAP_78_6603 (protein)
# chain: EVEELLDKAIEELDKAVELTKQLPEDVRNEVLGLLVDALSYLLEAFEDKPDLENLEKALESAKEALKLVETIDTEEAKELKKEITKAIELLEKAIKLLKE
# Biological target: GABARAP, O95166
# Test: median log2 fold change of GCK-ALFA target abundance (FLAG IP / Myc IP barcode read proportion) (log2 ratio); each designed protein is fused to an ALFA-tag nanobody in HEK293 cells to bring the named protein to FLAG-tagged glucokinase (GCK); Myc marks an untargeted standard; higher = target protein stabilised (more abundant)
# Conditions: target protein: 3xFLAG-MCP-GCK-ALFA reporter; HEK293 landing pad (RPLP)
# Method in brief: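 HEK293 landing-pad cells received a recombined binder library fused to the ALFA nanobody and were induced with 2 μg mL^−1 doxycycline, then transfected with a plasmid encoding a FLAG-tagged target and a Myc-tagged standard. Lysates were collected after 48 h for anti-FLAG and anti-Myc immunoprecipitation, and the circular RNA barcodes were reverse transcribed, amplified and sequenced. Target abundance for each binder is the median log2 ratio of FLAG to Myc barcode read proportions. Barcodes had to reach a proportion of at least 10^−7 in both replicates, each binder needed at least 3 barcodes per replicate, a pseudocount of 10^−6 was applied, and the two replicates were pooled.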
# GABARAP, O95166, sequence (O95166 whole entry, the tested form may be a part): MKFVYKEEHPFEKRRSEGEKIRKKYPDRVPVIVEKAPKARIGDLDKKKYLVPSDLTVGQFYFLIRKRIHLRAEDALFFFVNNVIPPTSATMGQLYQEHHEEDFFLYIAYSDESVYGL
row,Binder,median log2 fold change
1,B1,0.532
2,B2,0.16
3,B3,0.127
4,B4,0.0741
5,B5,0.0879
6,B6,0.157
7,B7,-0.126
8,B8,0.233
9,B9,0.256
10,B10,0.211
11,B11,0.392
12,B12,0.23
13,B13,0.276
14,B14,-0.0984
15,B15,0.0186
16,B16,0.239
17,B17,-0.628
18,B18,-0.117
19,B19,-0.285
20,B20,-0.228
21,B21,-0.176
22,B22,0.104
23,B23,0.418
24,B24,0.286
25,B25,0.283
26,B26,0.308
27,B27,0.243
28,B28,0.102
29,B29,0.0502
